Experimental data published in US11389455B2, “Inhibitors of HIV-1 integrase multimerization” (Institute for Cancer Research, priority 2017, dated 2022).

Target: Prototype Foamy Virus (PFV) integrase (Human spumaretrovirus, UniProt P14350)
Test: Specificity: single end and concerted integration in vitro, PFV integrase
Assay type: biochemical

Compound	inhibitory activity for PFV integrase single end or concerted integration catalysis (tested up to 1 mM)	inhibitory activity for PFV integrase single end or concerted integration catalysis (tested up to 0.35 mM)
Cn1ncnc2c(=O)n(C)c(=O)nc1-2 [Formula I-1]	neither TF-1 or NBF-X had inhibitory activity	
O=C(CCCCCNc1ccc([N+](=O)[O-])c2nonc12)ON1C(=O)CCC1=O [II-4]		neither TF-1 or NBF-X had inhibitory activity
